Test results: PubChem BioAssay AID360 (National Center for Advancing Translational Sciences (NCATS), 2006)
The whole screen tested about 48,000 compounds, of which about 550 (1.1%) were called active. Inconclusive results (about 4%) are left out. Rule as the data show it: active = potency below about 15 µM; inconclusive = mostly about 16 µM to 33 µM; inactive = weaker than that. Some of the results follow.

What follows are compounds tested against Lysosomal acid glucosylceramidase (Homo sapiens) (UniProt P04062) (assay: Glucocerebrosidase). Settings: purified enzyme, resorufin glucoside fluorescence (screen aimed at inhibitors), 20 min.
Outline: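 Wild-type enzyme at 0.2 nM final in 50mM citric acid/KH2PO4, 10mM sodium taurocholate, 0.01% tween-20, pH 5.9, with resorufin beta-D-glucopyranoside at 30 uM final. Compounds titrated, 20 min at RT, red fluorescence read; AC50 from titration.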
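Also: the screen sought inhibitors.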
Potency is read from the fitted curve at half-maximal effect.

UniProt P04062, sequence (P04062 whole entry, looked up): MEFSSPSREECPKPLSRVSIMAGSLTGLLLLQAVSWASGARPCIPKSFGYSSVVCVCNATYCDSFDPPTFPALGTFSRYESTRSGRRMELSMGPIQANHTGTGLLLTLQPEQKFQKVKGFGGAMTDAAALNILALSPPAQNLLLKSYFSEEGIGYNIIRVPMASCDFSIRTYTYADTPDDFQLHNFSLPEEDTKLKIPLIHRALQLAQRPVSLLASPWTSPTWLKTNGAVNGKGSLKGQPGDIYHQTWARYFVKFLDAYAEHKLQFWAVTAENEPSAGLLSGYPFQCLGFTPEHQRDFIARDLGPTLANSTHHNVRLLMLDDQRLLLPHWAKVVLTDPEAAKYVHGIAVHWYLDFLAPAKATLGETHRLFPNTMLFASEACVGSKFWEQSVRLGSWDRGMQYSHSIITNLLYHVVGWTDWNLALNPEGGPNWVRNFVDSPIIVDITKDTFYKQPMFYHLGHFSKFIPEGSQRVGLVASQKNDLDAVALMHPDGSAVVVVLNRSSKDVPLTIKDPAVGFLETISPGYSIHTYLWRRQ

Potency, inactive:
CCC(Sc1ncccc1C(=O)O)C(=O)N1CCCC1 (configuration not stated) > 76.9 µM
CCOc1ccc(-c2[nH]nc3c2C(c2ccc(O)cc2)C(C#N)=C(N)O3)cc1 (configuration not stated) > 76.9 µM
COc1ccc(NC2CC(=O)N(c3cccc(C)c3)C2=O)cc1 (configuration not stated) > 76.9 µM
COc1ccc(N2CCN(C(c3cc4ccc(C)cc4[nH]c3=O)c3nnnn3C3CCCC3)CC2)cc1 (configuration not stated) > 76.9 µM
CCCCn1c2nc3ccccc3nc2c2c(=O)n(CCC(C)C)cnc21 > 76.9 µM
Cc1c(Br)c(=O)[nH]c(=O)n1COCc1ccccc1 > 76.9 µM
O=C(NCc1cn2ccsc2n1)Nc1ccc(Cl)cc1 > 76.9 µM
CCCN(CCC)CCCNC(=O)CC1Nc2ccccc2NC1=O (configuration not stated) > 76.9 µM
CCOC(=O)c1sc(-c2ccccc2)cc1NC(=O)CSc1nnnn1C > 76.9 µM
CCOC(=O)C1=C(C)NC2=C(C(=O)CCC2)C1c1cccs1 (configuration not stated) > 76.9 µM
O=C(NC1CCCC1)C(c1cccnc1)N(C(=O)c1csnn1)C1CC1 (configuration not stated) > 76.9 µM
OC(CN1CCOCC1)CN1CCOCC1 > 76.9 µM
COC(=O)\C(C(C)=O)=C(/C=C/C=C/N(C)C)N(C)C > 76.9 µM
Cc1ncoc1C(=O)Nc1nccs1 > 76.9 µM
COc1ccc(OC)c(CNC(=O)C2CCN(C(=O)N(C)C)CC2)c1 > 76.9 µM
CCOC(=O)c1ccccc1NC(=O)CSc1nc2ccccc2n1CC(=O)N1CCCC1 > 76.9 µM
CC(=O)c1cc(OC(=O)N2CCOCC2)ccc1OC(=O)N1CCOCC1 > 76.9 µM
O=C(O)CNC(=O)c1ccccc1F > 76.9 µM
CCOC(=O)c1cccc(NC(=O)CN2C(=O)C3C4C=CC(C4)C3C2=O)c1 (configuration not stated) > 76.9 µM
Cc1ccc(C)c2[nH]c(=O)c(CCNC(=O)c3ccc(Br)o3)cc12 > 76.9 µM
CC(C)c1nc2oc3c(NCC4CCCO4)ncnc3c2c2c1COC(C)(C)C2 (configuration not stated) > 76.9 µM
CN(C)c1ccc(NC(=O)Nc2cccc(Cl)c2)cc1 > 76.9 µM
COc1cccc2c3c(c(C)nc12)CC(C)O3 (configuration not stated) > 76.9 µM
COc1ccc(OC)c(NC(=O)C2CCN(S(=O)(=O)c3cccs3)CC2)c1 > 76.9 µM
CCC/C(O)=C1\C(=O)CC(C)(C)CC1=Nc1ccc(OC)cc1OC > 76.9 µM
Cc1ccc(Nc2nc(CSc3nnc(-c4cccs4)o3)cs2)cc1
Nc1cc(C(=O)O)ccc1N1CCCCCC1 > 76.9 µM
O=C(CS(=O)(=O)Cc1ccccc1)N1CCN(Cc2ccc3c(c2)OCO3)CC1 > 76.9 µM
Cc1ccc(Cn2ccc(NC(=O)C3C4CCC(C4)C3C(=O)O)n2)cc1 (configuration not stated) > 76.9 µM
COc1cccc(-c2noc(CCC(=O)Nc3cccnc3)n2)c1 > 76.9 µM
CCCC(=O)Nc1ccc(C(=O)n2nnc3ccccc32)cc1 > 76.9 µM
Cc1nnc(SCCn2c(N3CC(C)CC(C)C3)nc3c2c(=O)[nH]c(=O)n3C)s1 (configuration not stated) > 76.9 µM
CN1C(=O)c2ccc(NC(=O)c3c(F)c(F)c(F)c(F)c3F)cc2C1=O > 76.9 µM
Cc1cc(N2CCN(c3ccccc3)CC2)nc(-n2nc(C)cc2C)n1
COc1ccccc1N1CCSC1C(N)=O (configuration not stated) > 76.9 µM
CCCC(=O)NCCc1cc2cc(C)c(C)cc2[nH]c1=O > 76.9 µM
COc1ccc(OC(C)C(=O)NCc2cccnc2)cc1 (configuration not stated) > 76.9 µM
COc1ccc(C(=O)COC(=O)CCn2nnc(-c3cccc(O)c3OC)n2)cc1 > 76.9 µM
CCOC(=O)C(Cc1c[nH]c2ccccc12)NC(=O)c1ccco1 (configuration not stated) > 76.9 µM
CC/C(=C1/C(=O)CC(C)(C)C(C(=O)OC)C1=O)N1CCCC1 (configuration not stated) > 76.9 µM
COc1cc(OC)cc(C(=O)NCC(=O)N2CCC(C)CC2)c1 > 76.9 µM
CS(=O)(=O)N1CCN(c2ccccc2NC(=O)c2ccc(-c3ccc(Cl)cc3Cl)o2)CC1 > 76.9 µM
Cc1cc(NS(=O)(=O)c2ccc(NC(=O)C(C)N3C(=O)c4ccccc4C3=O)cc2)nc(C)n1 (configuration not stated) > 76.9 µM
CCNc1oc(COc2cccc(C)c2)nc1C#N > 76.9 µM
COc1ccc(OC)c2sc(N3CCN(c4ccccc4)CC3)nc12 > 76.9 µM
COC(=O)c1ccccc1NC(=O)CC(NCc1ccccc1)C(=O)O (configuration not stated) > 76.9 µM
C=CCNC(=O)C1CCN(S(=O)(=O)CC)CC1 > 76.9 µM
O=C1c2ccccc2NC2(CCCCC2)N1c1ccc(O)cc1 > 76.9 µM
Cc1nc2ncnn2c(C)c1CCC(=O)N1CCOCC1 > 76.9 µM
CN(C(=O)c1c(Cl)nc2sccn12)C1CCCCC1 > 76.9 µM
CCn1nnc(NC(=O)c2cc3ccccc3o2)n1 > 76.9 µM
O=C(c1cccc(-c2nnc(-c3ccccc3)o2)c1)N1CCCCC1 > 76.9 µM
OC(COCc1cccs1)CN1CCN(c2ccccn2)CC1 (configuration not stated) > 76.9 µM
Cc1ccc(SCCC(=O)NCc2ccco2)cc1 > 76.9 µM
COCCNC(=O)CCCn1c(=O)c2ccccc2n(CC(=O)NCCC2=CCCCC2)c1=O > 76.9 µM
C=CCn1c(COc2ccccc2)nnc1SCC(=O)O > 76.9 µM
COCCn1c(C)cc(C(=O)COC(=O)c2ccc(-n3nc(C)cc3C)cc2)c1C > 76.9 µM
CC(C)CN(C(=O)COC(=O)Cc1c[nH]c2ccccc12)C1CCS(=O)(=O)C1 (configuration not stated) > 76.9 µM
Cc1cc(N(CN2CCCC2=O)C(=O)c2ccccc2)no1 > 76.9 µM
Cn1c(N2CCCCC2)nc2c1c(=O)n(Cc1cccc(Br)c1)c(=O)n2C > 76.9 µM
N#Cc1ccccc1NC(=O)COC(=O)c1ccc2c(c1)OCCO2 > 76.9 µM
O=c1c2nnn(Cc3ccccc3)c2ncn1-c1ccccc1 > 76.9 µM
Cc1ccc(C2CC(c3ccccc3OC(F)F)Nc3ncnn32)cc1 (configuration not stated) > 76.9 µM
O=C(CCCC1=NS(=O)(=O)c2ccccc2N1)N1CCN(c2ccccc2)CC1 > 76.9 µM
COC(=O)C(C)n1cnc2c(nnn2-c2ccc(OC)cc2)c1=O (configuration not stated) > 76.9 µM
CCNC(=O)c1ccccc1NC(=O)c1cccc(S(=O)(=O)N2CCC(C)CC2)c1 > 76.9 µM
CC1CCN(S(=O)(=O)c2cccc(C(=O)N(C)C3CCS(=O)(=O)C3)c2)CC1 (configuration not stated) > 76.9 µM
CN(c1ccccc1)S(=O)(=O)c1ccc(C(=O)OCC(=O)N2CCOCC2)cc1 > 76.9 µM
Cc1ccc(NC(=O)c2cc(S(=O)(=O)N3CCOCC3)ccc2F)c(C)c1 > 76.9 µM
COc1ccccc1NC(=O)c1ccccc1NS(C)(=O)=O > 76.9 µM
CCC(C(=O)N1CCc2cc(OC)c(OC)cc2C1)c1ccccc1 (configuration not stated) > 76.9 µM
Cc1ccc(C(=O)N2CCCC2)cc1S(=O)(=O)Nc1ccccc1 > 76.9 µM
Cc1cc(C)n(-c2nc3c(c(=O)[nH]c(=O)n3C)n2Cc2ccc(F)cc2)n1 > 76.9 µM
CC(=O)Nc1ccc(C(=O)NC2CCCC2)cc1 > 76.9 µM
COc1ccc(-n2c(Cc3cccn3C)nnc2SCC(=O)NCCc2ccccc2)cc1 > 76.9 µM
O=C(NC1C2CC3CC(C2)CC1C3)C1CC1 (configuration not stated) > 76.9 µM
CN1C(=O)N(C)C2(CC1(C)C)CC(C)(C)N(C)C(=O)N2C > 76.9 µM
CCOc1ccc(C(=O)NCc2cccs2)cc1 > 76.9 µM
Cn1c(SCC(=O)N2CCOCC2)nnc1-c1ccccc1 > 76.9 µM
CC(C(=O)Nc1ccccc1-c1ccccc1)N1CCOCC1 (configuration not stated) > 76.9 µM
CCn1c(SCC(=O)N2CCCc3ccccc32)nc2ccccc2c1=O > 76.9 µM
CC1(C)C(c2cccs2)=NC(c2ccccc2)N1O (configuration not stated) > 76.9 µM
CSc1nc(-c2ccccc2)nc(N2CCCC2)c1C(C)=O > 76.9 µM
CCOC(=O)COc1ccc(S(=O)(=O)NCc2cccnc2)cc1 > 76.9 µM
CCNC(=O)c1sc(-c2ccccc2)nc1C > 76.9 µM
CCN(CC)C(=O)c1sc2nc(-c3ccccn3)[nH]c(=O)c2c1C > 76.9 µM
COc1cc(NC(=O)c2ccco2)c(OC)cc1NC(=O)CCC(=O)Nc1cc(C)ccc1C > 76.9 µM
CCCCCCC(=O)NCC(=O)OCC(=O)c1ccccc1 > 76.9 µM
NC(=O)c1ccc(OCC(F)(F)C(F)(F)C(F)(F)C(F)(F)C(F)(F)C(F)F)cc1
O=C(CSc1nnc2n(C3CCCC3)c(=O)c3ccccc3n12)N1CCCCCC1 > 76.9 µM
O=C(NCc1ccccn1)c1ccc(N2CCCC2=O)cc1 > 76.9 µM
C=CCNC(=O)C(C)N1C(=O)c2ccccc2C1=O (configuration not stated) > 76.9 µM
